From PMC7948960
Results are given in words; binding and its absence hold for the method and conditions named. Binding seen in cells or lysates may run through a third protein. Some binding calls cover weakened binding; strength is not graded here. For part of these data: Sequences can lack the tags named with a protein.

Amino acid sequences for entries named in this document (tags omitted). A change or cut given only in a name is not applied to a line headed by its entry.
UniProt Q99683: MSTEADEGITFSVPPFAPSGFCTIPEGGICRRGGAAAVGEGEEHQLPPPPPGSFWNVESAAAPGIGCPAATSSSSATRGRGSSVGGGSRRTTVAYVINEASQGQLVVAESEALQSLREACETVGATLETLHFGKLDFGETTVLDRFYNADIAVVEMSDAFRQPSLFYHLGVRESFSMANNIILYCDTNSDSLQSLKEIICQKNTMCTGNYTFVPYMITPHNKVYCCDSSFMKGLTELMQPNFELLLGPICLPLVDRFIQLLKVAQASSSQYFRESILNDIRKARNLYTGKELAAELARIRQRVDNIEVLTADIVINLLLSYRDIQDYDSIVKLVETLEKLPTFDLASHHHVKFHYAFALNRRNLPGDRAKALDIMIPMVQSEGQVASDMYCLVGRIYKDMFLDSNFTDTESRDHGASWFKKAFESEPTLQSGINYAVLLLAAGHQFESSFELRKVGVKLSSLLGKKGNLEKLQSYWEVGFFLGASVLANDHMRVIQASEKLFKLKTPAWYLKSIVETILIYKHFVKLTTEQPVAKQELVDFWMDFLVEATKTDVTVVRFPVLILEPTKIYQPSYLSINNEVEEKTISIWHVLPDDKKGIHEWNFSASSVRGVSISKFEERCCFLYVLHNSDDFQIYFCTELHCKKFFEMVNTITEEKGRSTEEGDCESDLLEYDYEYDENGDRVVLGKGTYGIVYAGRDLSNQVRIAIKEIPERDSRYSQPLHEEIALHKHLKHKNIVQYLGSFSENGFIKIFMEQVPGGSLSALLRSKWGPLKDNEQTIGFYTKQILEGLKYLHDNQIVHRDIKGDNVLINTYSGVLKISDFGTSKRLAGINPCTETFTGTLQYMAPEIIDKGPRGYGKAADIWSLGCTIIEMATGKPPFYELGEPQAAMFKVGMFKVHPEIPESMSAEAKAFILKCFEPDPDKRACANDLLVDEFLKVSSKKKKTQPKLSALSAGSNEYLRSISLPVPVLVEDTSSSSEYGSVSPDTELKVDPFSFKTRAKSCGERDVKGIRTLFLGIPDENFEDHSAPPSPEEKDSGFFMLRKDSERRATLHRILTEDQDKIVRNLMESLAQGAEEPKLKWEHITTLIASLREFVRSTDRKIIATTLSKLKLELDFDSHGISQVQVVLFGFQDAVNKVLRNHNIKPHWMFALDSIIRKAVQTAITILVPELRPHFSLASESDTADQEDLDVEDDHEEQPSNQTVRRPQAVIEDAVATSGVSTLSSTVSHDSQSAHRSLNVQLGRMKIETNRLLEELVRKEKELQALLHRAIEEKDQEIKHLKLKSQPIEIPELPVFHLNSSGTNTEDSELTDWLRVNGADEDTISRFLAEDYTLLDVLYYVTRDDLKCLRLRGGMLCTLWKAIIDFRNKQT
UniProt Q13546: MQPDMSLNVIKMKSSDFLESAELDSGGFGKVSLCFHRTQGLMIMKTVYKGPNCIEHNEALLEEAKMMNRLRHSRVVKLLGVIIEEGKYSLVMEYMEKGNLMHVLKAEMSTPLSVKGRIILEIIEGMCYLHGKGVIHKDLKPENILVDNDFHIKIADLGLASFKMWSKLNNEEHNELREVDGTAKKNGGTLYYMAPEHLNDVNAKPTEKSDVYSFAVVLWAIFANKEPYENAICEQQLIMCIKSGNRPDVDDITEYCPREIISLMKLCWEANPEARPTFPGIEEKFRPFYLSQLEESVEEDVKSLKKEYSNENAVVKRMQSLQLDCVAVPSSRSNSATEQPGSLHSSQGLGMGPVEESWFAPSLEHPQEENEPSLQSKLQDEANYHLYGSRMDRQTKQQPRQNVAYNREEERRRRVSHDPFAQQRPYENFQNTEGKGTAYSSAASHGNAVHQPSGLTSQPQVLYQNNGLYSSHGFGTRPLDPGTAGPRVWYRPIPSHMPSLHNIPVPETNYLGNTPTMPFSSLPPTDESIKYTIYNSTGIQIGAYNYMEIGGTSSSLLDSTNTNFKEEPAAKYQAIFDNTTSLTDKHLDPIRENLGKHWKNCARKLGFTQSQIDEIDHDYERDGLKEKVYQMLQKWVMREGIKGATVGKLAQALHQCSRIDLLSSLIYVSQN

What was measured:
[1] = target: T1, A20-Flag (human TNFAIP3) expressed in Huh7 (human) (UniProt P21580); experiment: co-IP; Huh7 cells overexpressing the constructs, harvested at 48 h; same IP buffer and antibodies; western blot
T1 sequence: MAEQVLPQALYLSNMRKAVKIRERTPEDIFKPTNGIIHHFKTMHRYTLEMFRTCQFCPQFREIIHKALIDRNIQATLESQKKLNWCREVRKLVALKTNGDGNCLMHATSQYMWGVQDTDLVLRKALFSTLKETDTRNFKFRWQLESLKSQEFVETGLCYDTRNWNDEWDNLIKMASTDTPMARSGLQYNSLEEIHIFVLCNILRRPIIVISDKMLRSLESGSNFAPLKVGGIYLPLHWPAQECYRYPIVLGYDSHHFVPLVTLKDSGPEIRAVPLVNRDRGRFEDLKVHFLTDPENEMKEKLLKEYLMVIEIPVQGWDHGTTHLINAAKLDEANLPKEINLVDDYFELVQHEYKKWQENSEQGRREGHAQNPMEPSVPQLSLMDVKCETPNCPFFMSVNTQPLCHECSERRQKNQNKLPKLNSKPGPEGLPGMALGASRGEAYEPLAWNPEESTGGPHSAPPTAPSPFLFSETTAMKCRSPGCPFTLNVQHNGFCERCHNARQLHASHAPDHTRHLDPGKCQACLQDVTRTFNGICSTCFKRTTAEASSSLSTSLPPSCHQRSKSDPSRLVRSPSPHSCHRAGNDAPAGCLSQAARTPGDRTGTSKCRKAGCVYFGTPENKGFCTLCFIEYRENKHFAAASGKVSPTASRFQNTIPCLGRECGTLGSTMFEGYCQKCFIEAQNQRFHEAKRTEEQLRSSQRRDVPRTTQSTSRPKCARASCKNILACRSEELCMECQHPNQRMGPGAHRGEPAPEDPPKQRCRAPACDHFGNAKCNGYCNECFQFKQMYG

[2] = target: ASK1-Flag (human apoptosis signal-regulating kinase 1, pCMV-hAsk1-Flag) (human) (UniProt Q99683); experiment: co-IP; HEK293T cells cotransfected with GFP-A20 and ASK1-Flag together with HA-RIPK1 or control vector for 24 h; IP with GFP tag or Flag tag antibody or isotype-matched IgG; blots for ASK1, A20 and RIPK1
[3] = target: T2, GFP-A20 (human TNFAIP3, pEGFP1-C1-hA20) (human) (UniProt P21580); experiment: as above
T2 sequence: T1 sequence

[4] = target: T3, A20-Flag (human TNFAIP3, pCMV-hA20-Flag) (human) (UniProt P21580); experiment: co-IP; HEK293T cells cotransfected with two tagged proteins, harvested at 24 h; IP buffer 20 mM Tris pH 7.5, 150 mM NaCl, 5 mM EDTA, 0.5% Triton; IP overnight at 4 °C with anti-Flag-M2 agarose, anti-HA or anti-GFP antibody, isotype-matched IgG as control; western blot
T3 sequence: T1 sequence

binding [1]	binding [2]	binding [3]	binding [4]	Substance
binds	–	–	–	HA-RIPK1 (human RIPK1) expressed in Huh7 (from UniProt Q13546 1-671)
–	no binding	binds	binds	HA-RIPK1 (human receptor interacting protein kinase-1, 3HA-pCDNA3.3-hRIPK1) (from UniProt Q13546 1-671)
–	–	–	binds	HA-RIPK1^D138N (kinase dead human RIPK1) (from UniProt Q13546 1-671)
binds	–	–	–	HA-RIPK1^D138N (kinase dead human RIPK1) expressed in Huh7 (from UniProt Q13546 1-671)
